Patent US20050009094A1 (priority 2001, published 2005)
Read-outs that look alike come from different tables or passages of the source.

How the values were obtained:
14-3-3 protein mRNA = assay: Expression of 14-3-3 protein mRNA after PCB 118 and 17β-oestradiol, alone or combined (Northern Blotting); details: for induction of expression of 14-3-3 in lower invertebrates: FIG. 4; for level of the 14-3-3 protein mRNA: PCB 118 2 μg/g, 17β-oestradiol 20 ng/g, 17β-oestradiol = 100% reference value, 3 or 6 days
Procedure: FIG. 4: The effect of PCB 118 (2 μg/g) and 17β-oestradiol (20 ng/g) on the expression of the 14-3-3 gen. The two chemicals were applied/added to the experimental animals (Geodium cydonium) either as individual substances or in combination. The incubation period was limited to 3 or 6 days.
For the quantification of the 14-3-3 protein mRNA by means of the Northern Blotting technique, gene probes, which extend from the conserved starting regions [aa 45-aa 57] up to the conserved end regions [aa 214-aa 234] of the 14-3-3 protein (FIG. 2) were constructed. The employed method was PCR cloning.
The quantitative evaluation of the signals can be accomplished e.g. by using the chemiluminescence method (Stanley and Kricka, Bioluminescence and chemiluminescence: current status. John Wiley & Sons, New York, 1990) in combination with a PhosphoImager (e.g. GS-525 Molecular Imager from the Bio-Rad company); [Di-sodium 2-chloro-5-(4-methoxyspiro{1,2-dioxetane-3,2 ′-(5′-chloro)-tricyclo[3.3.1.13,7]decane } -4-yl)phenylphosphate] (CDP) is used as a substrate for this.
Moreover, it was successfully shown, that an exponentiation of the expression of 14-3-3 protein mRNA sets in, when both substances are combined. In the absence of both agents, the 14-3-3 protein mRNA is not able to be detected. Whereas the level of the 14-3-3 protein mRNA was 30% when PCB118 is applied, and 100% (reference value) when 17β-oestradiol was applied, both chemicals together induced the expression of 14-3-3 protein at a value of 550%. The induction terminates after 3 days.

SMILES | induction of expression of 14-3-3 in lower invertebrates (14-3-3 protein mRNA) | level of the 14-3-3 protein mRNA (14-3-3 protein mRNA) | 14-3-3 protein (OD unit) (14-3-3 protein; in vivo, ip) | also measured
C[C@]12CC[C@@H]3c4ccc(O)cc4CC[C@H]3[C@@H]1CC[C@@H]2O [17β-oestradiol] | strongly induce | 100% | – | –
[Cd] [Cadmium, cadmium] | – | – | – | 14-3-3 protein (OD unit) (14-3-3 protein; cadmium 0.01 mg/kg i.p., liver after 5 days, ELISA): 0.30 OD unit; 14-3-3 protein (OD unit) (14-3-3 protein; cadmium 0.03 mg/kg i.p., liver after 5 days, ELISA): 0.75 OD unit; 14-3-3 protein (OD unit) (14-3-3 protein; cadmium 0.1 mg/kg i.p., liver after 5 days, ELISA): 0.98 OD unit
Clc1ccc(-c2ccc(Cl)c(Cl)c2)cc1Cl [PCB77] | – | – | – | 14-3-3 protein (OD unit) (14-3-3 protein; 0.03 mg PCB per kg i.p., liver after 5 days, ELISA): 0.97 OD unit
Clc1ccc(-c2cc(Cl)c(Cl)cc2Cl)cc1Cl [PCB118] | strongly induce | 30% | 0.74 OD unit | –
Clc1cc(Cl)c(-c2cc(Cl)c(Cl)cc2Cl)cc1Cl [PCB153] | – | – | 0.81 OD unit | –
